Measured values taken from PubChem BioAssay AID1346428 (National Center for Advancing Translational Sciences (NCATS), 2018).
The whole screen tested about 48,000 compounds, of which about 1,200 (2.5%) were called active. Roughly 2% stayed inconclusive and do not appear here.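 How the source made its calls: active means activation of at least 60% and not above a set upper limit (about 1 call in 100 departs from these limits); inconclusive means activation of 40% to 60%, or above that upper limit; inactive means activation under 40%.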 The list shows a part of the results.

What follows are molecules tested against Probable G-protein coupled receptor 32 (Homo sapiens) (UniProt O75388) (assay: qHTS for Agonists of Human Resolvin D1 Receptor DRV1). Conditions: CHO-K1 GPR32 beta-arrestin PathHunter luminescence, 90 min; at 76.9 µM; hits give high values; zero percent set by DMSO-only wells.
UniProt O75388, sequence (O75388 whole entry, looked up): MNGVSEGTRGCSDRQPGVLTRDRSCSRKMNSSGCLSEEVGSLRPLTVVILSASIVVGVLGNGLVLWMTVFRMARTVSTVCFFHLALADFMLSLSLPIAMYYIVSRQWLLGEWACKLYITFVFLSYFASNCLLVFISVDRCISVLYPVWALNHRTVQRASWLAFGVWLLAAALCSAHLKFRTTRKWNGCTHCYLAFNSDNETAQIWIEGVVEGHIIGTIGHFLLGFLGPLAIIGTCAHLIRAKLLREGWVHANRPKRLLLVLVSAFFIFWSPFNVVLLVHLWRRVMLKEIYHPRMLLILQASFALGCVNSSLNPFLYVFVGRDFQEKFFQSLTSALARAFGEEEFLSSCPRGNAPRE
In short: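 Engineered CHO-K1 line co-expressing GPR32-ProLink and EA-beta-arrestin. Compound treatment lasted 90 min at 37 °C. Luminescence was recorded after 1 h with substrate at ambient temperature, relative to DMSO basal wells.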
Further: 0% is about no effect.

SMILES | activation
CCN1CCCC1=O | inactive: 9.2%
COc1ccc(NC(=O)Cn2c(=O)n(-c3ccc(C)cc3)c(=O)c3c2cnn3C)cc1 | inactive: -3.2%
O=C(Nc1ccc2nc(SCC(=O)N3CCCC3)sc2c1)c1cccc(Cl)c1 | inactive: -18%
CCOC(=O)c1c(C)[nH]c(C)c1S(=O)(=O)N(C)CC(=O)Nc1ccc(C)c(N(C)C)c1 | inactive: 5.24%
CCOC(=O)c1cc2c(=O)n3ccccc3nc2n(Cc2ccco2)c1=NC(=O)c1c(F)cccc1Cl | inactive: 0.68%
CC(C)CCNC(=O)C1CCN(c2nc3ccc(Cl)cc3[nH]2)CC1 | inactive: -8.6%
COc1ccc(C)cc1NC(=O)c1ccc(=O)n(Cc2ccccc2)c1 | inactive: -26.2%
COC(=O)c1cc2occc2n1Cc1nc(-c2cccc(Cl)c2)oc1C | inactive: -6.49%
Cc1ccc(/C=C/c2onc(C)c2S(=O)(=O)N2CCC(C(=O)N3CCN(c4ccccc4F)CC3)CC2)cc1 | inactive: -6.1%
O=C(NCc1nc2ccccc2[nH]1)c1c(F)cccc1F | inactive: -6.78%
Cc1cccc(-n2c(C)nc3cc(C(=O)NCCC4=CCCCC4)ccc32)c1 | inactive: -22.6%
COc1ccc(NC(=O)CCNS(=O)(=O)c2cccc3nsnc23)cc1Cl | inactive: -15.1%
CCOc1ccccc1CN1CCc2nc(Nc3ccc4c(c3)OCCO4)ncc2C1 | inactive: -13.3%
COc1ccc(CCNC(=O)c2cc3sccc3n2Cc2ccc(Cl)cc2)cc1OC | inactive: -20.5%
CCCS(=O)(=O)N1CC(=O)N(c2ccc(C)cc2)C(C)(C(=O)NC2CCCCCC2)C1 (centres undefined) | inactive: 4.84%
O=C(NCCc1ccccc1Cl)c1ccc2c(=O)n(-c3ccccc3)c(=O)[nH]c2c1 | inactive: 40.4%
O=C(CSc1nc(Nc2ccc(F)cc2)c2ccccc2n1)c1ccc(F)cc1 | inactive: -10.7%
CCN(C(=O)Cn1cnc2onc(-c3ccc(F)cc3)c2c1=O)c1ccc(OC)cc1 | inactive: 7.62%
Cc1ccc(CNc2ncnc3onc(-c4ccc(F)cc4)c23)cc1 | inactive: 14.6%
Cc1cc(C)c2nc(NC(=O)c3ccc(S(=O)(=O)N4CCc5ccccc54)cc3)sc2c1 | inactive: -8.07%
Cc1oc2ncn(CC(C)C)c(=O)c2c1C(=O)NC(C)c1ccccc1 (centres undefined) | inactive: -8.14%

SMILES | activation
CCOc1ccc(NC(=O)Cn2c(=O)c(CNc3ccc(CC)cc3)cc3cc4c(cc32)OCO4)cc1 | inactive: -29.3%
COc1ccc(-c2nnc(SCC(=O)NC3CCCCC3)nc2-c2ccc(OC)cc2)cc1 | inactive: -26%
COCCn1c(C)cc(O)c(C(c2ccccc2)N2CCN(c3ccccc3)CC2)c1=O (centres undefined) | inactive: -16.6%
Cc1cccc(-n2ccnc2SCC(=O)Nc2cccc3ccccc23)c1C | inactive: 3.84%
CCOc1ccc(Nc2nnc(-n3nc(C)cc3C)c3ccccc23)cc1 | inactive: -3%
COc1ccc(C(=O)Nc2ccc3c(c2)CCCN3C(=O)c2cccs2)c(OC)c1 | inactive: -8.58%
COc1cc(OC)c(NC(=O)N2CCCn3nc(C)cc32)cc1Cl | inactive: -4.06%
O=C(Cn1c(=O)n(Cc2ccc3c(c2)OCO3)c(=O)c2oc3ccccc3c21)Nc1ccccc1F | inactive: -12.9%
COc1ccc(N2CC(C(=O)NCc3nnnn3-c3ccc(C)c(C)c3)CC2=O)cc1 (centres undefined) | inactive: -7.67%
Cc1c(F)c(N2CCNC(C)C2)cc2c1c(=O)c(C(=O)O)cn2C1CC1 (centres undefined) | inactive: -1.78%
COc1ccc(CCNC(=O)C(=O)NCC(c2ccco2)S(=O)(=O)c2ccccc2)cc1 (centres undefined) | inactive: -4.41%
COc1ccccc1NC(=O)Cn1c(=O)c(CNc2ccc(C)cc2)cc2cc3c(cc21)OCCO3 | inactive: -19.1%
Cc1cccc(N2C(=O)CSC23C(=O)N(CC(=O)NCc2ccccc2Cl)c2ccccc23)c1 (centres undefined) | inactive: -4.59%
COc1ccc(-c2nnc3n2N(C(C)=O)C(c2ccc(Cl)c(Cl)c2)=C(C(C)=O)S3)cc1 | inactive: -9.9%
O=C(Cn1c(SCCOc2ccc(Cl)cc2)nc2ccccc21)N1CCCCC1 | inactive: -24.1%
COc1ccc2cc3cc(C(=O)N4CCN(c5ccccc5F)CC4)oc3nc2c1 | inactive: 0.349%
O=c1[nH]c(=O)n(C2CCCCC2)c(O)c1C1=Nc2ccccc2SC(c2ccc(Cl)cc2)C1 (centres undefined) | inactive: -3.16%
COc1cccc(C2=CC(c3cc(Br)ccc3F)n3nnnc3N2)c1 (centres undefined) | inactive: -46.2%
CCCOc1ccc(C2CC(=O)Nc3c2c(C)nn3-c2nncc(-c3cccc(OC)c3)n2)cc1OC (centres undefined) | inactive: 16.4%
Cc1nc2c(c(C)c1CCC(=O)NCc1ccc(Cl)cc1)c(=O)n(C)c(=O)n2C | inactive: -2.05%
Cc1cccc(NC(=O)c2ccc3c(c2)CCN3S(=O)(=O)c2ccccc2)c1C | inactive: -8.78%

SMILES | activation
Cc1ccc(NC(=O)Nc2sc3nc4n(c(=O)c3c2C)CCC(C)CC4)c(Cl)c1 (centres undefined) | inactive: 0.232%
COc1cccc(OC)c1C(=O)Nc1nc2c(s1)CCc1ccccc1-2 | inactive: 1.67%
CC(CNC(=O)CN1C(=O)c2cccnc2Oc2ccc(Cl)cc21)c1ccccc1 (centres undefined) | inactive: -11.4%
COc1ccc(-c2noc(-c3ccc(N4CCN(c5ccccc5)CC4)c([N+](=O)[O-])c3)n2)cc1 | inactive: -33.9%
COC(=O)c1ccc(NC(=O)N2CCN(Cc3cc(=O)n4nc(-c5ccc(C)cc5)sc4n3)CC2)cc1 | inactive: -11.8%
CCc1cc(C(=O)NCc2ccccc2)no1 | inactive: 6.81%
COc1cc(NC(=O)CSc2nc(-c3ccco3)cc(C(F)(F)F)n2)cc(OC)c1OC | inactive: 6.6%
Cc1nnc(NC(=O)c2nc(SCc3ccccc3F)ncc2Cl)s1 | inactive: 21.2%
COc1ccccc1NC(=O)CN1C(=O)C2(SCC(=O)N2c2ccc(F)c(F)c2)c2ccccc21 (centres undefined) | inactive: -9.95%
O=C(NCc1ccccc1)C(=O)Nc1ccc2nc3n(c(=O)c2c1)CCCCC3 | inactive: -4.8%
Cc1c(C(=O)Nc2cccc(Cl)c2)oc2ccc(S(=O)(=O)N3CCCCCC3)cc12 | inactive: -7.36%
Cc1cc(C)nc(-n2nc(C)c3c2N(C)C(=O)CC3c2ccc(Cl)cc2)n1 (centres undefined) | inactive: -7.74%
Cc1ccc(CN2COc3ccc4c(-c5ccccc5)cc(=O)oc4c3C2)cc1 | inactive: -2.53%
Cc1cc(-c2ccc(S(=O)(=O)Nc3ccccc3F)s2)on1 | inactive: -9.03%
CC(NC(=O)Cc1ccc(NC(=O)N2CCSc3ncccc32)cc1)c1ccccc1 (centres undefined) | inactive: 10.5%
CCCOc1ccc(C(=O)Nc2ccc(NC(=O)c3ccccc3)c(Br)c2)cc1 | inactive: -14.3%
COc1ccc(C(=O)Nc2cc(C)c(O)c(-c3nc4ccccc4s3)c2)cc1OC | inactive: -0.174%
Cc1ccc(C)c(NC(=O)Cn2c(=O)n(CC3CCCO3)c(=O)c3ccccc32)c1 (centres undefined) | inactive: -5.84%
CCN1CCN(c2ncnc3c2cnn3-c2ccc(C)c(C)c2)CC1 | inactive: -6.87%
CC(=O)Nc1ccc(NC(=O)CSc2nc3ccccc3nc2N2CCCCC2)cc1 | inactive: -5.5%
O=C(CN1C(=O)COc2ccc(S(=O)(=O)NC3CCCC3)cc21)Nc1ccc(Cl)cc1 | active: 104%

SMILES | activation
CCOC(=O)c1[nH]c(C)c(C(=O)NC(CC)Cc2ccccc2)c1C (centres undefined) | inactive: -0.446%
O=C(Nc1cccc(-c2cn3cccnc3n2)c1)c1cc(Br)ccc1Cl | active: 82.8%
Cc1ccc2c(c1)N(CC(=O)NCCc1ccc(Cl)cc1)C(=O)c1cccnc1O2 | inactive: -18.1%
Cn1c(-n2cccc2)c(-c2c(-c3ccccc3)[nH]c3c2c(=O)[nH]c(=O)n3C)c(=O)[nH]c1=O | inactive: -13.2%
COc1cccc(CNC(=O)c2ccc3c(c2)nc2n3CCOC2)c1 | inactive: -9.4%
Cc1ccc(-c2nnn3c2nc(NCC(C)c2ccccc2)c2ccccc23)cc1 (centres undefined) | inactive: 9.62%
CCN(Cc1ccccc1)C(=O)CN1C(=O)COc2ccc(S(=O)(=O)NC3CCCC3)cc21 | inactive: -38.5%
CCOc1ccc(CNC(=O)c2ccc(CS(=O)Cc3ccc(Cl)cc3)o2)cc1 (centres undefined) | inactive: -11.7%
Cc1oc(=O)oc1CN1CCN(c2cc3c(cc2F)c(=O)c(C(=O)O)c2n3C(C)S2)CC1 (centres undefined) | inactive: 4.23%
CCOC(=O)CSc1nc2sc3c(c2c(=O)n1-c1ccccc1)CC(C(C)C)OC3 (centres undefined) | inactive: -8.44%
CCOC(=O)c1c(S(=O)(=O)N2CCCC(C(=O)Nc3ccccn3)C2)c(C)n(C)c1C (centres undefined) | inactive: 18.3%
COc1cc(CNC(=O)C2CCCCN2S(=O)(=O)c2ccc(F)cc2)cc(OC)c1OC (centres undefined) | inactive: 17.6%
CCOc1ccc(C2CC(=O)Nc3cc4c(cc32)OCO4)cc1OC (centres undefined) | inactive: 19.4%
COc1ccc(-c2cc(C)no2)cc1S(=O)(=O)NCc1cccs1 | inactive: -15.6%
CCc1cccc(NC(=O)CN2Cc3ccccc3C2=O)c1 | inactive: -7.78%
COC(=O)c1c(NC(=O)Cc2coc3cc(C)ccc23)sc2c1CCCC2 | inactive: -11.6%
COc1ccc(CN2CCc3c(c(=O)n4ncc(C(=O)N5CCN(c6ccc(F)cc6)CC5)c4n3C)C2)cc1 | inactive: -10%
COc1ccccc1CNC(=O)c1cccn1-c1nnc(N2CCCCC2)s1 | inactive: -3.75%
CC(=O)N1CCc2c(sc3c2c(=O)n(-c2ccc(C)cc2)c(=O)n3Cc2c(F)cccc2Cl)C1 | inactive: 6.37%
Cc1ccc(CNC(=O)C2CCN(S(=O)(=O)c3ccc(F)cc3)CC2)cc1 | inactive: -10.9%
COc1ccc(CNC(=O)c2cc(-c3ccc(OC)cc3)nc3n[nH]c(-c4cccc([N+](=O)[O-])c4)c23)cc1 | inactive: -3.03%
